Test results from US20020150582A1, “Method of treating or inhibiting cellular injury or cell death” (priority 2001, published 2002).

Tested on: isolated feline ventricular myocytes
Test: Action potential recording in isolated ventricular myocytes (patch clamp)
Assay type: cell-based, cat
Conditions: n=4
Description: The latter process was performed three times.
Patch-clamp current and voltage recordings were made with the ruptured patch whole-cell configuration at 36-37° C. (14). For studies on L-type Ca^2+ currents, cells were bathed with modified Tyrode's containing (in mM): 157 TEA-Cl, 5 CaCl2, 0.5 MgCl2, and 10 HEPES. Electrode internal solution contained (in mM): 10 L-Glutamic Acid, 20 CsCl, 10 EGTA, 1 MgCl2, 1 CaCl2, 20 HEPES, and 5 ATP-Mg2; pH adjusted with CsOH. In all of the studies, electrode resistance was measured to be 2-3.5 MΩ. The reference zero potential was adjusted in the bath before forming seals. Recordings were performed with an Axon Instruments 200B amplifier (Axon Instruments, Culver City, Calif. USA) interfacing a DigiData 1200 DA/AD acquisition system. Ionic currents were evoked by depolarizing voltage step (1 sec-long) from −30 to +60 mV, in 10-mV increments, from a holding potential of −40 mV delivered at the frequency of 1 Hz. Action potentials were elicited at a frequency of 1 Hz by injection of brief depolarizing current pulses. Software used in data acquisition and analysis was pClamp v.6.04 and Origin v 5.0 (Microcal Software, Northampton, Mass.).

CCCCCCCCCCCCC/C=C/[C@@H](O)[C@@H](N)CO [Sphingosine]
reduction of duration at 95% of full repolarization (APD95) (0.25 μM): 16±2% | reduction of duration at 95% of full repolarization (APD95) (2.5 μM): 28±2% | reduction of duration at 95% of full repolarization (APD95) (25 μM): 39±2%
